In the data set the test system is human ex-vivo skin. The data set can be described thus: Ex-vivo testing of hydrotropes as penetration enhancers by CARS (coherent anti-stokes raman spectroscopy). The settings on record: addition of hydrotropes in the final formulation versus none.

Data on 1 compound can be found in patent US9018177B2 (L'Oreal S.A., priority 2012, dated 2015).

Regarding `O=C(O)[C@H]1O[C@@H](Oc2cc3oc(-c4ccccc4)cc(=O)c3c(O)c2O)[C@H](O)[C@@H](O)[C@@H]1O` [baicalin], the penetration depth result is listed as “improves the penetration depth”.
